# Test results reported in PubChem BioAssay AID651820 (National Center for Advancing Translational Sciences (NCATS), 2012).
# Out of some 340,000 compounds screened, about 12,000 (3.5%) were called active. Inconclusive means that the source gave no clear call. Such entries were picked first, then a sample of the others. Calls come from the whole dose curve; as a rule, active = well fitted inhibition curve with a large enough effect; inconclusive = small, poorly fitted or top-dose-only effect, or another doubt; inactive = no such curve, though single readings can be large or run the other way. No potency is given beside an inconclusive call; the fits are too rough.
# Test: qHTS Assay for Inhibitors of Hepatitis C Virus (HCV)
# Settings: Huh7.5.1 HCVcc-Cre (HCVcc is cell-culture hepatitis C virus) infection, luciferase reporter, 44 h; activity change, negative = inhibition: at 41.8 µM (top of the series) unless noted
# Procedure, shortened: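 Luciferase read-out (15 sec integration) after a 15 min room-temperature substrate step quantifies HCVcc-Cre infection. Cells, 1,000 per well, had compound added 4 h post-plating, then virus at ~0.5 moi, and were cultured 44 h.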
# % is set by controls: 0 for no effect and ±100 for the full control effect; potency is the fitted concentration of half-maximal effect; tags give direction and shape of the fitted curve.
SMILES,Potency,"activity change, negative = inhibition"
CCCn1c2ccccc2c2cnn(CC(=O)NC3CCN(Cc4ccccc4)CC3)c(=O)c21,"inconclusive [inhibitor, single point]",
O=C(O)C(c1ccccc1)N1C(=O)c2cccc3cccc(c23)C1=O (centres undefined),,inactive: 9.36%
CCOC(=O)c1c(-c2ccc(C)o2)csc1NC(=O)CN1CCC(C(N)=O)CC1,active: 4.47 µM,
CCOc1ccc2nc(SCc3ccc(C(=O)OC)o3)[nH]c2c1,,inactive: -13.7%
COC(=O)CSc1nc2sc3c(c2c(=O)n1-c1ccccc1)CCN(C)C3,"inconclusive [inhibitor, single point]",
Cc1ccc2c(Cl)c(C(=O)NCCCn3ccnc3)sc2c1,"inconclusive [inhibitor, partial curve]",
CCC(=O)Nc1nc(C)c(-c2csc(Nc3cccc(O)c3)n2)s1,active: 7.08 µM,
COc1cc(C(C)=O)ccc1O,"inconclusive [inhibitor, single point]",
COc1ccccc1CCNC(=O)C(=O)Nc1cc2c3c(c1)CC(=O)N3CCC2,"inconclusive [inhibitor, partial curve]",
Cn1c(NC(=O)c2ccc(F)cc2)c(-c2ccccn2)c(=O)c2ccccc21,,inactive: -1.52%
COCCCNc1nc2c(-c3cccc(C)c3)nnn2c2ccccc12,"inconclusive [inhibitor, full curve]",
Cc1ccc(C)n1-c1ccc(-c2nnc3n2CCCCC3)s1,"inconclusive [inhibitor, single point]",
Cc1c(Cl)ccc2sc(NC(=O)c3ccco3)nc12,"inconclusive [inhibitor, single point]",
Cn1cccc1/C=N/NC(=O)Cc1cccc2ccccc12,"inconclusive [inhibitor, single point]",
CC1CCN(C(=O)CSc2nc3ccccc3c(=O)n2Cc2ccc3c(c2)OCO3)CC1,"inconclusive [inhibitor, partial curve, poor fit]",
CCSc1ccccc1C(=O)Nc1nc2ccccc2c(=O)[nH]1,"inconclusive [inhibitor, single point]",
COc1ccccc1OCC(=O)NCC1CCCN(Cc2cnn(C(C)C)c2)C1 (centres undefined),,inactive: 27.1%
COc1ccc(OC)c(NC(=O)COC(=O)CN(C)S(=O)(=O)c2ccc(C)cc2)c1,,inactive: 0.0338%
CCN(CC)S(=O)(=O)c1cccc(NC(=O)c2ccc(Sc3nncn3C)c([N+](=O)[O-])c2)c1,"inconclusive [inhibitor, full curve]",
COc1cc(Cl)c(C)cc1NCC(=O)Nc1cccc(S(=O)(=O)N2CCCC2)c1,"inconclusive [inhibitor, full curve]",
Oc1ccc(-c2[nH]ncc2-c2ccc(Cl)cc2)c(O)c1,"inconclusive [inhibitor, single point]",
COc1ccc(C(=O)Nc2ccccc2C(=O)NCc2ccco2)cc1OC,"inconclusive [inhibitor, partial curve]",

SMILES,Potency,"activity change, negative = inhibition"
Cc1ccc(OCc2ccc(C(=O)Nc3nc4ccccc4n3Cc3ccccc3)o2)c([N+](=O)[O-])c1,"inconclusive [inhibitor, full curve]",
O=C1c2ccccc2S(=O)(=O)N1CC(O)Cn1c2ccccc2c2ccccc21 (centres undefined),,inactive: 12.3%
CCOc1ccccc1N1CCN(C(=S)NC(=O)C23CC4CC(CC(C4)C2)C3)CC1,,inactive: 30.2%
Fc1ccc2nc(Nc3nc4c(s3)CCCC4)sc2c1,"inconclusive [inhibitor, single point]",
O=C(c1sccc1Cl)N1CCN(Cc2ccc3c(c2)OCO3)CC1,"inconclusive [inhibitor, single point]",
O=C(NCCCl)Nc1ccccc1OCCOc1ccccc1NC(=O)NCCCl,"inconclusive [inhibitor, single point]",
COc1ccc(Br)cc1CNC(=O)c1ccc2c(c1)N(C)CCS2,"inconclusive [inhibitor, partial curve]",
C/C=C(\C)C(=O)N[C@@H](c1ccccc1)[C@@H](O)C(=O)O[C@H]1C[C@@]2(O)[C@@H](OC(=O)c3ccccc3)C3[C@](C)(C(=O)[C@H](O)C(=C1C)C2(C)C)[C@@H](O)C[C@H]1OC[C@@]31OC(C)=O (some centres undefined),"inconclusive [inhibitor, full curve]",
COC(=O)[C@@]12CCCCN1[C@H](c1ccc(SC3CCCCC3)c(OC)c1)[C@@H]1C(=O)N(C)C(=O)[C@@H]12,,inactive: -4.56%
O=C(CSc1ccc(-c2cccs2)nn1)Nc1ccccc1,"inconclusive [inhibitor, single point]",
C#CCOCCOCCOCCNc1nc(N2CCN(C(=O)CCCCCCCCCCNC(=O)[C@H]([C@@H](C)CC)n3cc(CCCCN=C(N)N)nn3)CC2)nc(N2CCN(C(=O)CCCCCCCCCCNC(=O)[C@@H]([C@H](C)O)n3cc(C)nn3)CC2)n1,"inconclusive [inhibitor, single point]",
Cc1nn2c(N3CCOCC3)c3c(nc2c1-c1ccccc1)CCCC3,"inconclusive [inhibitor, partial curve]",
Cc1nc(CS(=O)(=O)c2ccc(Cl)cc2)cc(Sc2ccccc2Cl)n1,,inactive: -18.4%
CO/N=C(/CS(=O)(=O)Cc1ccccc1Cl)c1ccc(Cl)cc1Cl,"inconclusive [inhibitor, single point]",
CCn1cnc2sc(C(=O)Nc3ccc4c(c3)OCO4)c(C)c2c1=O,"inconclusive [inhibitor, single point]",
Cc1onc(NC(=O)c2ccc(Cl)cc2Cl)c1Br,,inactive: -8.3%
CN(Cc1nc2ccccc2c(=O)[nH]1)C(=O)c1cccc(S(=O)(=O)N2CCc3ccccc32)c1,,inactive: 3.17%
COc1ccc(Cn2nnnc2C(c2ccccn2)N2CCN(c3cc(Cl)ccc3C)CC2)cc1 (centres undefined),"inconclusive [inhibitor, single point]",
CC(C)C[C@H]1CNC(=S)N1CC1CCCN1C[C@H](CC(C)C)N1C[C@H](Cc2ccc(O)cc2)N(CC2CCCCC2)C1=S (some centres undefined),active: 10 µM,
Cc1cc(C)cc(NC(=O)CN2C(=O)C3CC=CCC3C2=O)c1 (centres undefined),,inactive: 10.8%
CCN1C[C@@]2(COC)C3[C@@H](OC)[C@H]4[C@@H]1[C@@]3(C1C[C@H]3[C@H](OC(=O)c5ccccc5)C1[C@]4(OC(C)=O)C[C@H]3OC)[C@@H](OC)C[C@H]2O (some centres undefined),"inconclusive [inhibitor, partial curve, poor fit]",
COc1ccc(C2=NOC(Cn3nc(C(=O)NCc4ccco4)cc3-c3ccccc3)C2)cc1 (centres undefined),"inconclusive [inhibitor, single point]",

SMILES,Potency,"activity change, negative = inhibition"
Oc1ccccc1-c1nnc(SCCN2CCOCC2)n1Cc1ccccc1,"inconclusive [inhibitor, single point]",
O=C(Nc1ccc(-n2cnnn2)cc1)c1cc(S(=O)(=O)N2CCCC2)ccc1Cl,"inconclusive [inhibitor, full curve]",
COc1ccc([N+](=O)[O-])cc1Nc1ncnc2ccccc12,"inconclusive [inhibitor, partial curve]",
COc1ccc(-n2c(=S)[nH]c3cc(C(=O)Nc4ccccc4OC)ccc3c2=O)cc1,,inactive: 0.772%
COC(=O)c1ccccc1-c1c2ccc(=N)cc-2oc2cc(N)ccc12,"inconclusive [inhibitor, single point]",
CCC(=O)Nc1ccc2nc(C3CC3)n(Cc3ccc(C(C)(C)C)cc3)c(=O)c2c1,"inconclusive [inhibitor, partial curve]",
CN1CCC(C(=O)N2CCCC(C(=O)c3ccc4c5c(cccc35)CC4)C2)CC1 (centres undefined),"inconclusive [inhibitor, partial curve]",
COc1ccc(-c2sc3cc(OC)c(OC)cc3c2-c2ccc(O)cc2)cc1,active: 28.2 µM,
C/C(=N\NC(=S)Nc1cccc(C)c1)c1cccc(N)c1,"inconclusive [inhibitor, partial curve]",
c1ccc(-n2ncc3c(NCc4ccco4)ncnc32)cc1,"inconclusive [inhibitor, single point]",
CCCCn1c(N)c(N(CCOC)C(=O)c2ccc(-n3c(C)ccc3C)cc2)c(=O)[nH]c1=O,"inconclusive [inhibitor, single point]",
COc1ccc(C2CC(=O)Oc3cc(OC)ccc32)cc1 (centres undefined),"inconclusive [inhibitor, full curve, poor fit]",
CCNc1ccc(C(=O)OCC)cc1NC(=O)c1cccc(N(C)C)c1,"inconclusive [inhibitor, full curve, poor fit]",
Cc1ccsc1/C=N/N1CCN(c2ccccn2)CC1,,inactive: -27.1%
Cc1cccc(C)c1OCc1nnc(SCC(=O)Nc2nccs2)o1,,inactive: -12%
CCOC(=O)c1c(NC(=O)Cc2ccccc2)sc2c1CC(C)(C)NC2(C)C,"inconclusive [inhibitor, partial curve]",
Cc1cc(C(=O)NNC(=O)COc2ccccc2Cl)n[nH]1,,inactive: -0.733%
N#Cc1ccc(-c2csc(NC3=NCCCCC3)n2)cc1,"inconclusive [inhibitor, partial curve, poor fit]",
CN1CCN(c2ccc(NC(=O)CSc3nnnn3-c3ccccc3Cl)cc2)CC1,"inconclusive [inhibitor, single point]",
CCc1cccc(C)c1NC(=S)N(Cc1cccnc1)Cc1ccco1,"inconclusive [inhibitor, single point]",
